Results reported in article PMC6815820.
Where two headings read alike, the source gives them in different places. These are yes or no findings as the source states them, for the method shown. In cells and extracts the contact can be indirect. Some results given as binding are weak or reduced against the parent protein; the word gives no strength. For part of these data: Tags and fused reporters may be left off the sequences shown.

By UniProt entry, the sequences of proteins in these tests, tags left out. Residues count along the entry.
UniProt O60602, residues 21-858: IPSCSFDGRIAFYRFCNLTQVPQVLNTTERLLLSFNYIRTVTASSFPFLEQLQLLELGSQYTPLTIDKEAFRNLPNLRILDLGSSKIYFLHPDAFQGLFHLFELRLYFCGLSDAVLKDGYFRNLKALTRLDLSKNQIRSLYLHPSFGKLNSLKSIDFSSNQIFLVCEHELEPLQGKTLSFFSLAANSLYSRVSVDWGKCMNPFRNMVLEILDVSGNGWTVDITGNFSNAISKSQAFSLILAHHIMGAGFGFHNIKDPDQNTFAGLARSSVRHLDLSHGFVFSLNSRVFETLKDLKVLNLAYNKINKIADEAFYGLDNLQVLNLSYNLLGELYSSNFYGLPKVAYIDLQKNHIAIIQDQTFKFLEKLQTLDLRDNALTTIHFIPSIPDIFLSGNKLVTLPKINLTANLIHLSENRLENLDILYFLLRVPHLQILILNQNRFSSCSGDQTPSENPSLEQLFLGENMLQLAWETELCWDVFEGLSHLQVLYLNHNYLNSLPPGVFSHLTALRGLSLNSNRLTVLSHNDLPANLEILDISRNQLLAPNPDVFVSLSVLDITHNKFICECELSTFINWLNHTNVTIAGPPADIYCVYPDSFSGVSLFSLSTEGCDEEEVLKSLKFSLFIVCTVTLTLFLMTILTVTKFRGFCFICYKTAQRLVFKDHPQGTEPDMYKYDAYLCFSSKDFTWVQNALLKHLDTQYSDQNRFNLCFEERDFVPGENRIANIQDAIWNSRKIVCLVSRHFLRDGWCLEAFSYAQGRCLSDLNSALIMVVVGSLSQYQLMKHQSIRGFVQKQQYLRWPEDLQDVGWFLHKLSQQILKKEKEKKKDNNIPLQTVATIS

B1: Treponema pallidum flagellin FlaB2, full-length recombinant (protein, UniProt P21991 1-286)
chain: MIINHNMSAMFSQRTLGHTNLSVQKNIEKLSSGLRINRSGDDASGLAVSEKMRSQIRGLNQASTNAQNGISFIQVAEAFLQETTDVIQRIRELSVQAANGIYSAEDRLYIQVEVSQLVAEVDRIASHAQFNGMNMLTGRFARQGGENTVTASMWFHIGANMDQRTRAYIGTMTAVAMGIRDAGDESVMNIDSPEKANRAIGTLDQAIKRINKQRADLGAYQNRLDHTVAGINVAAENLQAAESRIRDVDMAKEMVDYTKNQILVQSGTAMLAQANQATQSVLSLLR
B2: Treponema pallidum flagellin FlaB3, full-length recombinant (protein, UniProt P21992 1-285)
chain: MIINHNMSAMFAQRQGGINGLAIAKNIEKLSSGYRINRAGDDASGLAVSEKMRSQIRGLNQAGQNIQNGISFIQATEGYLAETTEIVQRLRELAIQAANGIYSAEDRMQIQVEVSQLVDEVDRIASQAQFNGMNLLTGRFSRESALGPMQLHVGANMDQNEKIFINTMTASALGFFSDEGTDGSRSISIATVDGANKVIGTLDSALKEINKQRADLGAYQNRFETAYQGIAIAAENLQAAESRIRDADLAQQMVDYTKNQILEQSTMAMLAQANTQPQAVLRLMQ
B3: Treponema pallidum flagellin FlaB1, full-length recombinant (protein, UniProt P21990 1-286)
chain: MIINHNMSAMFAQRTLGHTNVQVGKGIEKLSSGYRINRAGDDASGLAVSEKMRSQIRGLNQASTNASNGVNFIQVTEAYLQETTDIMQRIRELAIQAANGIYSAEDRMQIQVEVSQLVAEVDRIASSAQFNGMNLLTGRFSRTEGENVIGGSMWFHIGANMDQRMRVYIGTMTAVALGVRNGVDESIMSIETADSANKSIGTIDAALKRINKQRADLGGYQNRMEYTVVGLDIAAENLQAAESRIRDANIAKQMVEYTKNQVLTQSGTAMLAQANTSAQSILSILR

Legend:
[1] = biological target: human TLR5 (human (endogenous in THP-1)) (UniProt O60602); assay: co-IP; 30 ug purified His-tagged flagellin added to THP-1 lysate (or lysis buffer as control); anti-hTLR5 mAb 19D759.2 at 4 C for 16 h; agarose beads 1 h at room temperature; 5 washes with 1x PBS, 0.02% Tween 20, pH 7.5; flagellin detected with anti-His antibodies; only the binder purified
[2] = biological target: human TLR5 (human (endogenous in THP-1)) (UniProt O60602); assay: as above; remark: listed apart in the source

Row | Molecule | binding [1] | binding [2]
1 | TpFlaB1 C (202-286) (from UniProt P21990 202-286) (domain or fragment) | no binding (tested: 30 μg of each protein) | 
2 | TpFlaB1 △C0 (1-242) (from UniProt P21990 1-242) (domain or fragment) | binds | 
3 | TpFlaB1 △C (1-201) (from UniProt P21990 1-201) (domain or fragment) | binds | 
4 | TpFlaB1 △N0 (52-286) (from UniProt P21990 52-286) (domain or fragment) | binds | 
5 | TpFlaB1 △N0C0 (52-242) (from UniProt P21990 52-242) (domain or fragment) | binds | 
6 | TpFlaB1 △N (139-286) (from UniProt P21990 139-286) (domain or fragment) | no binding (tested: 30 μg of each protein) | 
7 | TpFlaB2 C (202-286) (from UniProt P21991 202-286) (domain or fragment) | no binding (tested: 30 μg of each protein) | 
8 | TpFlaB2 △C0 (1-242) (from UniProt P21991 1-242) (domain or fragment) | binds | 
9 | TpFlaB2 △C (1-201) (from UniProt P21991 1-201) (domain or fragment) | binds | 
10 | TpFlaB2 △N0 (52-286) (from UniProt P21991 52-286) (domain or fragment) | binds | 
11 | TpFlaB2 △N0C0 (52-242) (from UniProt P21991 52-242) (domain or fragment) | binds | 
12 | TpFlaB2 △N (139-286) (from UniProt P21991 139-286) (domain or fragment) | no binding (tested: 30 μg of each protein) | 
13 | TpFlaB3 C (202-286) (from UniProt P21992 202-285) (domain or fragment) | no binding (tested: 30 μg of each protein) | 
14 | TpFlaB3 △C0 (1-242) (from UniProt P21992 1-242) (domain or fragment) | binds | 
15 | TpFlaB3 △C (1-201) (from UniProt P21992 1-201) (domain or fragment) | binds | 
16 | TpFlaB3 △N0 (52-286) (from UniProt P21992 52-285) (domain or fragment) | binds | 
17 | TpFlaB3 △N0C0 (52-242) (from UniProt P21992 52-242) (domain or fragment) | binds | 
18 | TpFlaB3 △N (139-286) (from UniProt P21992 139-285) (domain or fragment) | no binding (tested: 30 μg of each protein) | 
19 | B1 |  | binds
20 | B2 |  | binds
21 | B3 |  | binds
